# Data reported in article PMC5515408.
# The list shows a part of the results. At the low end of the ranking the order means little.
# Tested on: MYC (p64) + MAX (p21), in MYC:MAX
# Test: protein-binding microarray (anti-MAX antibody)
# Conditions: PBM: 15 mM Tris-HCl pH 7.5, 100 mM KCl, 0.075% NP40, 7.5 mM beta-mercaptoethanol, 375 ng/ul BSA, 8 ng/ul poly(dA-dT):(dA-dT), 550 ng complex, 60 min, room …; high values mean tight binding; double strand, one strand shown; sequences stand for … in CCGGC…TTAATAGCTAAGATTACTATATCGACG
row,Sequence,binding signal (log2 normalized fluorescence)
1,TGATGACGCGTA,0.226
2,TGAAATCAAGTA,0.0178
3,TGACGCATGGTA,0.803
4,TGATAAAACGTA,0.0636
5,TGAAAATCAGTA,-0.13
6,TGAGTGTCAGTA,0.191
7,TGACGACCTGTA,0.141
8,TGATACGCAGTA,-0.0514
9,TGAGACCAGGTA,0.00989
10,TGACCATTAGTA,0.233
11,TGAGTGGTTGTA,0.154
12,TGAGGGTACGTA,0.0262
13,TGAACGTTGGTA,0.0604
14,TGAAGATCCGTA,-0.0818
15,TGATCGTAGGTA,-0.156
16,TGAAGGAAGGTA,0.0484
17,TGACTTTTGGTA,-0.0102
18,TGACCACAGGTA,0.256
19,TGATTATCAGTA,0.127
20,TGATGCGGGGTA,0.343
21,TGACCGCGAGTA,0.44
22,TGACTCTTCGTA,0.076
23,TGAGCTCATGTA,0.339
24,TGAAACGAAGTA,0.113
25,AGACGCGTGGTA,0.53

row,Sequence,binding signal (log2 normalized fluorescence)
1,TGAGGCGTAGTA,-0.212
2,TGACCTCACGTA,0.274
3,TGAGTCAGAGTA,-0.0589
4,TGAAAGGCGGTA,0.129
5,TGAAGGGGAGTA,0.294
6,TGAATCTAAGTA,-0.0537
7,TGACTGGCAGTA,-0.0111
8,TGACGGGCTGTA,0.00969
9,TGAAGGAGCGTA,0.0684
10,TGATGAACCGTA,0.178
11,TGATCCACAGTA,0.224
12,TGATTTTCAGTA,-0.284
13,TGACCCCGTGTA,0.42
14,TGACACGTGGTC,1.02
15,TGACACTTTGTC,0.152
16,TGAGAATTAGTA,-0.155
17,TGATATAGTGTA,0.0483
18,TGATTGCCTGTA,0.0735
19,TGAGGCGGGGTA,0.411
20,TGACTGGCTGTA,0.0819
21,TGACCGAATGTA,0.333
22,TGATGACATGTA,0.414
23,TGAGCTGCGGTA,-0.028
24,TGATAATCAGTA,0.0796
25,TTACACCAGGTA,0.388

row,Sequence,binding signal (log2 normalized fluorescence)
1,TGAGATTCTGTA,-0.0451
2,TGAGTAGGAGTA,-0.186
3,TGACACGTAAAA,0.384
4,TAACTCGTTGTA,0.36
5,TGAGCATGGGTA,0.371
6,TGAGTGAATGTA,0.0548
7,TGATCCCATGTA,0.149
8,TGACTAACAGTA,0.0855
9,TGAATACAAGTA,0.136
10,TGACTCAATGTA,0.121
11,TGACCGGCTGTA,0.152
12,TAACACATGGTA,0.6
13,TGAGTATCGGTA,-0.274
14,TGAGGATTCGTA,-0.123
15,TGAGGGCTAGTA,-0.0338
16,TGATCGCGGGTA,-0.0139
17,TGAGATTCGGTA,-0.225
18,TGAGTAACAGTA,-0.0818
19,TGCCGCGTGGTA,0.764
20,TGATTTTATGTA,-0.0404
21,TGAGAGACGGTA,-0.00994
22,TGAACAGCCGTA,0.0392
23,TGATCGAAGGTA,-0.225
24,TGAAGTTGGGTA,-0.198
25,TGAAGCCATGTA,0.311

row,Sequence,binding signal (log2 normalized fluorescence)
1,TGAGCTCCGGTA,-0.109
2,TGATCTAATGTA,-0.00321
3,TCGAACGTGGTA,0.51
4,TGACAACTTGTA,0.122
5,TGAGCCGGAGTA,-0.288
6,TGATCGCAGGTA,-0.0948
7,TGACACGTGAGC,0.713
8,TGAGTTTACGTA,-0.0452
9,TGAGCTTTAGTA,-0.0706
10,TGATTGTTCGTA,-0.0465
11,TGATATGGCGTA,0.0154
12,TGCCACGTTGTA,0.496
13,TGAGTGAAGGTA,-0.0839
14,TGACTTGGTGTA,0.0699
15,TGGCTCGTGGTA,0.282
16,TGAGATTCCGTA,-0.159
17,TTCCACGTGGTA,0.707
18,TGACAATATGTA,0.32
19,TGAACGTGTGTA,0.493
20,TGATAGATGGTA,0.047
21,TGACATTTGGTG,0.186
22,TGATACCTGGTG,-0.154
23,TGATGCCCGGTA,0.143
24,TGAGAAAGCGTA,-0.0364
25,TGAGGGTCCGTA,0.127

row,Sequence,binding signal (log2 normalized fluorescence)
1,TGAGGTATTGTA,0.0697
2,TGATATCGCGTA,0.164
3,TGAAAAAAAGTA,-0.0264
4,TGAACTTCAGTA,0.133
5,TGACATGCGGTA,0.515
6,TGACACGTGGGG,1
7,TCATACGTGGAA,0.29
8,TGATACATGGTA,0.427
9,TGAAGTGAGGTA,0.266
10,TGAGTCCGGGTA,-0.281
11,TGATCCGCAGTA,-0.0847
12,TGACAGTGAGTA,0.167
13,TGATGATGGGTA,0.0323
14,TGAAGGTAAGTA,0.092
15,TGAACGCCCGTA,0.114
16,TGAGGGACCGTA,0.0302
17,TGAAGGCGCGTA,0.0961
18,TGAGGGGTGGTA,0.636
19,TGATAGTACGTA,0.131
20,TGATTGATTGTA,-0.146
21,TGAAGTCGCGTA,0.0145
22,TGACCTCGAGTA,0.361
23,TGACACGTAAGA,0.309
24,TGATCCAAGGTA,0.104
25,TGAGCGACCGTA,0.193

row,Sequence,binding signal (log2 normalized fluorescence)
1,TGACCATCAGTA,0.276
2,TGACGGAGAGTA,-0.141
3,TGAGGAAGCGTA,-0.0931
4,TGAAGCGTTGTA,0.397
5,TGAGGAGAAGTA,-0.287
6,TGACACCCGGTA,0.337
7,TGAATTGCGGTA,0.00543
8,TGACTGAGGGTA,-0.0498
9,TGACCAAAAGTA,0.0878
10,TAACACGTCGTA,0.497
11,TGACGTTTCGTA,0.178
12,TGATCCTCGGTA,-0.0203
13,TGAAGCTCCGTA,-0.0343
14,TGAATGTTAGTA,0.3
15,TGATGAAATGTA,0.0917
16,TGATATAGCGTA,-0.206
17,TGAGTTCGCGTA,-0.0452
18,TGATTCGTGGTA,0.292
19,TGATCAGACGTA,0.0319
20,TGATTAAACGTA,-0.169
21,TGACACGTGCCC,0.7
22,AGACTCGTGGTA,0.67
23,TGACTCTAGGTA,0.131
24,TGACCCACAGTA,0.0783
25,TGACACGGCGTA,0.188

row,Sequence,binding signal (log2 normalized fluorescence)
1,TGAACGTAAGTA,-0.107
2,TGACATGTGTTA,0.626
3,TGTCACGTGCTA,0.591
4,TGATGGTTTGTA,0.255
5,TGCCACGTGTTA,0.969
6,TGAGTCTGCGTA,0.0859
7,TGAGGGGATGTA,0.369
8,TGATAGATCGTA,-0.162
9,TGATTTGCCGTA,-0.208
10,TGAGCCTTGGTA,-0.0809
11,TGAATTAGAGTA,-0.143
12,TGATGAGCTGTA,-0.135
13,TGAACGTCAGTA,0.168
14,TGAAAAAGCGTA,0.155
15,TGATCTCCCGTA,-0.0606
16,TGATAGATTGTA,-0.194
17,TGACTCTTGGTA,0.16
18,TGAGGATGGGTA,-0.0151
19,TGAGTGGAGGTA,0.0432
20,TGAGGTGTCGTA,0.0225
21,TGAAGTCCCGTA,-0.0586
22,TGACACCCAGTA,0.219
23,TGATTCTCGGTA,-0.129
24,TGACGATATGTA,-0.127
25,TGAGTTCGAGTA,-0.115

row,Sequence,binding signal (log2 normalized fluorescence)
1,CGACCCGTGCTA,0.496
2,TGAATTATGGTA,0.00718
3,TGACGTCCGGTA,0.167
4,TGACTTACAGTA,-0.0187
5,TGAGTTGGTGTA,-0.00306
6,TGTATCGTGGTA,0.398
7,TGAAAGCGGGTA,0.0838
8,TGATGCTTCGTA,0.162
9,TGATTGTATGTA,0.0121
10,TGAAAATACGTA,0.159
11,TGAACCGTAGTA,-0.187
12,TGACACGTGTGC,0.818
13,TGAGGGGCAGTA,0.394
14,TGAAATGAAGTA,0.0276
15,TGAATCAGTGTA,0.0631
16,TGACCCCTTGTA,-0.0765
17,TGAACGGCCGTA,0.0168
18,TGACAACGAGTA,0.257
19,TGAACGGGTGTA,-0.0535
20,AAACACGTGGTA,1.02
21,TGAAGAGCGGTA,0.13
22,TGACGCGGTGTA,0.156
23,TGAAGGGTCGTA,0.0463
24,TGACCAAGCGTA,0.126
25,TGATACGGGGTA,0.136

row,Sequence,binding signal (log2 normalized fluorescence)
1,TGAGTGGGAGTA,0.0653
2,TGATCAGAAGTA,0.197
3,TGAGCCCCGGTA,-0.0235
4,TGAGTACCTGTA,0.076
5,TGAGACATGGTA,0.298
6,TGAAGTAATGTA,0.118
7,TGAACGCGGGTA,0.201
8,TGACGGAGCGTA,0.0737
9,TGACACGTCACA,0.51
10,TGATATACTGTA,-0.0699
11,TGAACTACTGTA,0.188
12,TGACACGTTCAA,0.563
13,TGAGTCACTGTA,0.221
14,TGAGGCTTGGTA,-0.0912
15,TGAGACTGAGTA,-0.128
16,TGAATAATGGTA,0.0389
17,TGAGCGCACGTA,0.294
18,TGAATCCAAGTA,-0.13
19,TGACACGGTCTA,0.332
20,TGATGCCCTGTA,-0.00115
21,TTCGCTCTTTGA,-0.219
22,TGACACATGGTG,0.748
23,TGATATACGGTA,-0.026
24,TGGTCCGTGGTA,-0.0337
25,TGAAATACGGTA,0.102

row,Sequence,binding signal (log2 normalized fluorescence)
1,TGAATTGTAGTA,0.0486
2,TGACCTAGGGTA,-0.0467
3,TGACTCCACGTA,0.225
4,AGAGACGTGGTA,0.387
5,TGAGCGAGGGTA,0.223
6,TGATTATTTGTA,-0.0994
7,TGAGTGTATGTA,0.205
8,TCACCCGTGGTA,0.412
9,TGAAAGAATGTA,0.0901
10,TGAGTGCTAGTA,0.123
11,TGATGGGGAGTA,0.296
12,TGAAACCACGTA,0.379
13,GATCACGTGGTA,0.946
14,TGATGACGAGTA,-0.00261
15,TGATTCGCTGTA,0.0417
16,TGACCTAACGTA,0.0453
17,TAACGCGTGGTA,0.783
18,CTAGTCTAGAAT,-0.374
19,TGAGAGTATGTA,0.132
20,TGAAACGGGGTC,0.201
21,TGACTAGACGTA,-0.0767
22,TGAAGGGTGGTA,0.18
23,TGAGCCGCTGTA,0.0565
24,TGATCCGGGGTA,-0.0173
25,TGATCATCCGTA,0.104

row,Sequence,binding signal (log2 normalized fluorescence)
1,TGACTGCGCGTA,0.301
2,TGAACGCAGGTA,0.126
3,GTACACGTGGTA,0.671
4,TGACACGTTGGA,0.728
5,TGACGCAGAGTA,0.0585
6,TGATCGAGTGTA,-0.0449
7,TAACAAGTCGTA,0.0777
8,TGAGCGTATGTA,0.285
9,TTACATGTGGAA,0.696
10,TGATAGTCGGTA,0.0385
11,TGATTCAATGTA,0.176
12,TGCCATGCGGTA,0.684
13,TGAATTCTGGTA,0.0878
14,TGATCAACAGTA,-0.0508
15,TGAGTTCCCGTA,0.0824
16,AGAAACGTGTTA,0.573
17,TGAGTCAATGTA,-0.11
18,TGACTTCACGTA,0.249
19,TGACCCCGCGTA,0.242
20,TGACACGTGACG,0.654
21,TTACACATGGTA,0.641
22,TGAAAAACGGTA,-0.138
23,TGACCTGCGGTA,0.144
24,TGACGCCCTGTA,0.133
25,TCGATCTTGTTC,-0.147
